Measured values published in PubChem BioAssay AID759 (NMMLSC, 2007).
Where “and” joins values, the source holds several entries; their conditions need not be identical. Equal entries are not always repeated. Screen size: about 190,000 compounds; about 270 (0.14%) were called active. The inconclusive results got no clear call from the source; some entries with a clear call stand among them for comparison.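 The calls were made as follows: active = GTP binding activity at least 20% away from the 100% baseline, either lowered as inhibitor or raised as activator; inconclusive = flagged as likely green fluorescent, judged across all proteins in the well; inactive = the rest.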

What follows are compounds tested against GTPase HRas (Homo sapiens) (UniProt P01112) (assay: HRas wt fluorescent GTP binding changes, either direction – biochemical, wildtype, bead-based flow cytometry, multiplex, primary screen (AID 759;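 also: 0% = unlabeled GTP competition control and 100% = no-compound control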)). Settings: GST-Ras wt beads, Bodipy-FL-GTP binding, at 10 µM, actives lie on both sides.
Chain of UniProt P01112 (P01112 whole entry, looked up): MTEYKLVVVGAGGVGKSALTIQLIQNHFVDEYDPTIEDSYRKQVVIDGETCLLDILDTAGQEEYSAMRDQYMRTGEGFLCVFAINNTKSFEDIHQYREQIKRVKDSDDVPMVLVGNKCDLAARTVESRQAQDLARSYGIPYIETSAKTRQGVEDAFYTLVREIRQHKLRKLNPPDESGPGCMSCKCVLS

Structure (SMILES)	GTP binding activity
Cc1c(C(=O)NCCCN2CCOCC2)sc2nc(-c3ccc(F)cc3)cn12	inactive: 99%
COc1ccc(CCNC(=O)[C@@H](NC(N)=O)C(C)C)cc1	inconclusive: 90%
Cc1cc(C)cc(-n2cc(C(=O)O)c(=O)cc2C)c1	inactive: 96%
CCC(=O)Nc1nc(-c2ccc3c(c2)OCCO3)cs1	inactive: 100%
CCCCCn1c(N2CCOCC2)nc2c1c(=O)n(CC(N)=O)c(=O)n2C	inactive: 105%
CCN1CCN(C(=O)C(C)Nc2ccc(OC)cc2OC)CC1 (centres undefined)	inactive: 95%
COC(=O)C1=C(O)CSC1=Nc1cccc(C(F)(F)F)c1	inconclusive: 103%
Cc1cccc(N=c2c([N+](=O)[O-])nn(-c3ccc(Cl)cc3)n2O)c1	inconclusive: 96%
COC(=O)C1CCN(CC(=O)Nc2sc3c(c2C#N)CCC3)CC1	inconclusive: 94%
CC(NC(=O)OC(C)(C)C)C(=O)NC(CCC(=O)OCc1ccccc1)C(N)=O (centres undefined)	inactive: 99%
O=Cc1ccc2oc3nc4n(c(=O)c3c(=O)c2c1)CCCS4	inconclusive: 90%
CC(C)CNC(=O)c1ccc(Cl)c(N)c1	inactive: 100%
COc1ccccc1N1CCN(S(=O)(=O)c2cn(C)c(=O)n(C)c2=O)CC1	inconclusive: 102%
O=c1[nH]c(SCc2cccc(Cl)c2)nc2ccccc12	inconclusive: 96%
CSc1ncccc1C(=O)NC(C)C1CC2CCC1C2 (centres undefined)	inactive: 98%
C=CCN1C(=O)C2C3CC(=O)C(c4ccccc43)C2C1=O (centres undefined)	inactive: 98%
CC(C)Oc1ccc(C(=O)N2CCCC2C(=O)O)cc1 (centres undefined)	inconclusive: 121%
CN(Cc1ccccc1)c1nc(N)c([N+](=O)[O-])c(Nc2cccc(F)c2)n1	inactive: 101%
COc1ccc(CC(=O)OCc2nnc(-c3ccccc3)o2)cc1	inactive: 86%
CC(=O)Oc1ccc2nc(CN3C(=O)c4ccc([N+](=O)[O-])cc4C3=O)oc(=O)c2c1	inconclusive: 90%
COc1ccc(NC(=O)CSC2CC(=O)N(c3ccc4c(c3)OCCO4)C2=O)cc1 (centres undefined)	inconclusive: 107%
Cc1ccccc1NC(=O)CSc1nnc(-c2ccccc2)n1-c1ccccc1	inconclusive: 103%
COc1ccc(-c2cn(-c3ccccc3)c3[n+]2CCS3)cc1	inactive: 103% and inactive: 104%
Cc1ccc(OCc2ccc(C(=O)NCc3cccnc3)cc2)cc1C	inactive: 95%

Structure (SMILES)	GTP binding activity
CC1=NNC(=O)C1C(c1ccccc1)C(C#N)C#N (centres undefined)	inconclusive: 96%
O=C(O)C1CSC(CCc2ccccc2)N1 (centres undefined)	inactive: 109%
COC(=O)CCC(=O)Nc1cccc([N+](=O)[O-])c1	inconclusive: 92%
Cc1cc(C)n2nc(C(=O)N(C)C(c3ccccc3)c3ccccc3)nc2n1	inconclusive: 91%
O=C(O)Cc1coc2cc3c(cc12)CCC3	inactive: 88%
NC1=NC(=O)/C(=C\c2ccc(O)c([N+](=O)[O-])c2)S1	active: 66%
CCCCC(=O)Nc1ccc(C(=O)NNC(=O)CCc2ccccc2)cc1	inconclusive: 106%
CCN(C(=O)CSc1nnc(C)n1-c1ccccc1)C1CCS(=O)(=O)C1 (centres undefined)	inconclusive: 95%
COc1cccc(-n2ccnc2SCC(=O)Nc2ccccc2F)c1	inconclusive: 93%
COc1ccc(C(=O)N2CCOC23CCN(c2ncccn2)CC3)cc1	inactive: 97%
CCOC(=O)c1c(-c2ccccc2)csc1NC(=O)/C(C#N)=C/c1ccc(O)c(OC)c1	inconclusive: 141%
CCOC(=O)Cn1c(=O)c2c(nc(N3CCCCC3)n2C)n(C)c1=O	inactive: 109%
C=CCN1C(=O)/C(=C/c2ccc(N(C)C)cc2)S/C1=N\c1nnc(CC)s1	inconclusive: 133%
Cc1n[nH]c(C)c1CCOc1ccc(C(C)C)cc1	inconclusive: 91%
O=C(O)c1ccc(Br)c(S(=O)(=O)N2CCCC2)c1	inconclusive: 117%
COc1ccc(CC(=O)Nc2ccc(S(=O)(=O)NC(C)C)cc2)cc1	active: 33%
CCOC(=O)/C=C/C(=O)Nc1ccc(Oc2ccccc2)cc1	inconclusive: 96%
CC(c1ccccc1)N1CC(C(=O)N2CCN(c3ccc(F)cc3)CC2)CC1=O (centres undefined)	inconclusive: 93%
CSc1ccccc1NC(=O)c1cc(-c2cccnc2)nc2ccc(Br)cc12	inactive: 98%
O=C(NCCc1ccccc1)c1c(F)c(F)c(F)c(F)c1F	inactive: 101%
Cc1cc(C)c2cc(CNC3CCCC3)c(Cl)nc2c1	inconclusive: 118%
CCN(CC)C(=O)/C(=C\c1ccc2c(c1)OCO2)NC(=O)c1ccc(Br)cc1	inconclusive: 97%
COC(=O)c1ccccc1NC(=O)C1COc2ccccc2O1 (centres undefined)	inconclusive: 97%
O=C(NCc1ccco1)/C(=C\c1cccs1)NC(=O)c1ccco1	inconclusive: 95%

Structure (SMILES)	GTP binding activity
CC1Oc2ccccc2OC1C(=O)Nc1ccccn1 (centres undefined)	inconclusive: 101%
CCOc1ccc(-n2c(=S)sc3c(=O)[nH]c(SCC(=O)N4CCC(C)CC4)nc32)cc1	inconclusive: 97%
CC(C)(C)NCCOc1ccc(Br)cc1	inconclusive: 104%
Cn1nnnc1SCc1ccc(C(=O)Nc2nccs2)cc1	active: 73%
Cc1ccccc1C(=O)NNC(=O)c1cccc([N+](=O)[O-])c1	inconclusive: 98%
CC(C)Oc1ccc(C(CC(=O)O)n2cnnn2)cc1 (centres undefined)	inconclusive: 95%
Cn1nnnc1Sc1ncnc2scc(-c3ccc(F)cc3)c12	inconclusive: 146%
O=C(NCc1ccc2c(c1)OCO2)c1ccc(S(=O)(=O)N2CCOCC2)cc1	inactive: 102%
COc1ccc(-c2cc(-c3ccccc3)n3ncnc3n2)cc1	inconclusive: 109%
Fc1ccc(C(Nc2ccccn2)c2c[nH]c3ccccc23)cc1 (centres undefined)	inconclusive: 89%
CCOc1ccc(N2C(=O)CC(N(CCc3ccc(OC)cc3)C(=O)/C=C/C(=O)O)C2=O)cc1 (centres undefined)	inconclusive: 91%
CCOc1c(Cl)cc(Cl)cc1CNCCNCCO	inconclusive: 105%
c1ccc2oc(SCc3nc4ccccc4s3)nc2c1	inconclusive: 85%
CCS(=O)(=O)N1CCN(CC(=O)NC2CCCCC2)CC1	inactive: 99%
CCOc1ccc(C2C(C(=O)O)CCC(=O)N2C2CCCCC2)cc1 (centres undefined)	active: 72%
CC(C)N(C)NC(=S)Nc1ccccc1	inconclusive: 252%
Cc1nn(Cc2ccc(F)cc2)c2sc(C(=O)Nc3ccc(N4CCOCC4)cc3N3CCOCC3)cc12	inconclusive: 96%
CC(=O)c1ccc(-n2nncc2-c2ccc([N+](=O)[O-])cc2)cc1	inconclusive: 94%
CN(C)C(=O)CSc1nc(SCC(=O)N(C)C)n(-c2ccccc2)n1	inconclusive: 102%
CN(C)S(=O)(=O)c1ccc(Cl)c(C(=O)Nc2nc3ccccc3[nH]2)c1	inconclusive: 91%
Cc1cc(C)cc(NC(=O)NCc2nnc(SCc3ccccc3)n2C)c1	inconclusive: 91%
COc1ccc(/C=C/C(=O)Nc2ccccc2C(F)(F)F)cc1OC	inconclusive: 94%
Cc1ccc(S(=O)(=O)NC(C(=O)N2CCOCCOCCOCC2)c2ccccc2)cc1 (centres undefined)	inactive: 96%
O=C(Nc1nc(-c2ccncc2)cs1)c1ccc(S(=O)(=O)N2CCOCC2)cc1	inconclusive: 92%

Structure (SMILES)	GTP binding activity
COc1ccc(NC(=O)CSc2[nH]c(=O)cc(C)c2C#N)cc1OC	inconclusive: 96%
CCOC(=O)CSc1nc2c(sc(=S)n2-c2ccccc2)c(=O)[nH]1	inconclusive: 89%
CC(=O)Nc1nc(C2CC2)cc(-c2ccccc2)c1C#N	inactive: 96%
COc1cccc2cc(-c3ccnc(=S)[nH]3)oc12	inconclusive: 71%
CCOc1cc(/C=N/NC(=O)c2cccs2)cc([N+](=O)[O-])c1O	inconclusive: 55%
O=C1N=C2N(CCN3CCCCC3)c3ccccc3N2/C1=C\c1ccc([N+](=O)[O-])o1	inconclusive: 95%
O=C(N/N=C\C=C\c1ccco1)c1cc(-c2ccc3ccccc3c2)n[nH]1	inconclusive: 96%
O=C(c1cccs1)N1CCN(S(=O)(=O)c2ccc(F)cc2)CC1	inconclusive: 93%
COc1cc(-c2cc(-c3ccc(O)cc3)nc(N)c2C#N)ccc1O	inconclusive: 73%
CC(C)n1nc(C(=O)Nc2nnc(SCc3c(Cl)cccc3Cl)s2)c2ccccc2c1=O	inactive: 95%
CCCCc1nc2ccccc2[nH]1	inconclusive: 94%
O=C(CCN1C(=O)c2ccccc2C1=O)OCn1nnc2ccccc2c1=O	inconclusive: 106%
COc1ccc(NC(=O)[C@H](COCc2ccccc2)NC(=O)OC(C)(C)C)cc1	inconclusive: 103%
O=C(Nc1nnc(-c2ccc3c(c2)OCCO3)o1)C1CCCCC1	inactive: 100%
COc1ccccc1NS(=O)(=O)c1cc([N+](=O)[O-])ccc1N/N=C/c1sc(N2CCOCC2)nc1-c1ccccc1	inconclusive: 122%
O=C(NCc1ccc(Cl)cc1)c1ncn[nH]1	inactive: 97%
CCN(CC)S(=O)(=O)c1ccc(Cl)c(NC(=O)COc2ccc3c(C)cc(=O)oc3c2)c1	inconclusive: 116%
CCS(=O)(=O)N1CCCC(C(=O)NCCN2CCC(Cc3ccccc3)CC2)C1 (centres undefined)	inconclusive: 103%
COc1ccc(N(CC(=O)O)S(=O)(=O)c2ccc(C)cc2)cc1Cl	inconclusive: 95%
CC1(C)N=C(c2ccc(Cl)cc2)C(=O)N1	inconclusive: 105%
CCN1CC(c2ccccc2)C(c2ccc(Cl)cc2)=N1 (centres undefined)	inactive: 101%
COc1cc(NC(=S)N2CCC(C(O)(c3ccccc3)c3ccccc3)CC2)cc(OC)c1	inactive: 99%
